In US20210324040A1 (ACCELERON PHARMA, published 2021):

B1: hTβRII (G4S)5-hFc (Fc fusion)
chain: GATIPPHVQKSDVEMEAQKDEIICPSCNRTAHPLRHINNDMIVTDNNGAVKFPQLCKFCDVRFSTCDNQKSCMSNCSITSICEKPQEVCVAVWRKNDENITLETVCHDPKLPYHDFILEDAASPKCIMKEKKKPGETFFMCSCSSDECNDNIIFSEEYNTSNPDTGGGGSGGGGSGGGGSGGGGSGGG[human IgG1 Fc and a few adjoining residues not written out]
B2: hTβRII (G4S)6-hFc (Fc fusion)
chain: GATIPPHVQKSDVEMEAQKDEIICPSCNRTAHPLRHINNDMIVTDNNGAVKFPQLCKFCDVRFSTCDNQKSCMSNCSITSICEKPQEVCVAVWRKNDENITLETVCHDPKLPYHDFILEDAASPKCIMKEKKKPGETFFMCSCSSDECNDNIIFSEEYNTSNPDTGGGGSGGGGSGGGGSGGGGSGGGGSGGG[human IgG1 Fc and a few adjoining residues not written out]
B3: hTβRII-hFc (Fc fusion)
chain: GATIPPHVQKSDVEMEAQKDEIICPSCNRTAHPLRHINNDMIVTDNNGAVKFPQLCKFCDVRFSTCDNQKSCMSNCSITSICEKPQEVCVAVWRKNDENITLETVCHDPKLPYHDFILEDAASPKCIMKEKKKPGETFFMCSCSSDECNDNIIFSEEYNTSNPDTG[human IgG1 Fc and a few adjoining residues not written out]
B4: hTβRII (G4S)2-hFc (Fc fusion)
chain: GATIPPHVQKSDVEMEAQKDEIICPSCNRTAHPLRHINNDMIVTDNNGAVKFPQLCKFCDVRFSTCDNQKSCMSNCSITSICEKPQEVCVAVWRKNDENITLETVCHDPKLPYHDFILEDAASPKCIMKEKKKPGETFFMCSCSSDECNDNIIFSEEYNTSNPDTGGGGSGGG[human IgG1 Fc and a few adjoining residues not written out]
B5: hTβRII (G4S)3-hFc (Fc fusion)
chain: GATIPPHVQKSDVEMEAQKDEIICPSCNRTAHPLRHINNDMIVTDNNGAVKFPQLCKFCDVRFSTCDNQKSCMSNCSITSICEKPQEVCVAVWRKNDENITLETVCHDPKLPYHDFILEDAASPKCIMKEKKKPGETFFMCSCSSDECNDNIIFSEEYNTSNPDTGGGGSGGGGSGGG[human IgG1 Fc and a few adjoining residues not written out]
B6: hTβRII (G4S)4-hFc (Fc fusion)
chain: GATIPPHVQKSDVEMEAQKDEIICPSCNRTAHPLRHINNDMIVTDNNGAVKFPQLCKFCDVRFSTCDNQKSCMSNCSITSICEKPQEVCVAVWRKNDENITLETVCHDPKLPYHDFILEDAASPKCIMKEKKKPGETFFMCSCSSDECNDNIIFSEEYNTSNPDTGGGGSGGGGSGGGGSGGG[human IgG1 Fc and a few adjoining residues not written out]
B7: hTβRII extended hinge-hFc (Fc fusion)
chain: GATIPPHVQKSDVEMEAQKDEIICPSCNRTAHPLRHINNDMIVTDNNGAVKFPQLCKFCDVRFSTCDNQKSCMSNCSITSICEKPQEVCVAVWRKNDENITLETVCHDPKLPYHDFILEDAASPKCIMKEKKKPGETFFMCSCSSDECNDNIIFSEEYNTSNPDTGGG[human IgG1 Fc not written out]

What follows are binders tested against T1, Human TGFβ1 (human, UniProt P01137 partial chain) (assay: cell-based or functional assay).

Binder | IC50 (inhibition of TGFβ1 in the A549 pGL3(CAGA)12 luciferase reporter gene assay)
B1 | 30 pM
B2 | 20 pM

Molecular target: T1, Human TGFβ1
Assay: cell-based or functional assay
Remark: another data set of the same source

T1 sequence (P01137 279-390 limits assumed): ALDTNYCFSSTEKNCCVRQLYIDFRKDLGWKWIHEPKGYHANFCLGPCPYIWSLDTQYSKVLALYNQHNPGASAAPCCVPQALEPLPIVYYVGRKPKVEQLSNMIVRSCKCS

Binder | IC50 (inhibition of TGFβ1 in the A549 pGL3(CAGA)12 luciferase reporter gene assay)
B3 | 7.69 nM
B4 | 1.12 nM
B5 | 0.22 nM
B6 | 70 pM
B7 | 5.67 nM
